Source: PubChem BioAssay AID445 (National Center for Advancing Translational Sciences (NCATS), 2006)
In all, about 110,000 compounds went through this assay and about 40 (0.04%) were called active. This list was built around the results that the source calls inconclusive (neither active nor inactive); the mix of calls is not that of the screen. Calls come from the whole dose curve; as a rule, active = well fitted curve in the direction sought with a large enough effect in the signal ratio (not every such curve was filed as active); inconclusive = small, poorly fitted or top-dose-only effect, or a change in a side signal; inactive = flat fitted curve, though single readings scatter; the % refers to the signal ratio. Where the call is inconclusive, the potency comes from a doubtful curve fit.

Assay: IkB Signaling;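 for IkBa stabilization activation: 0% = basal untreated cells and 100% = reference inhibitor full response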
Details: ABC-DLBCL IkBa-CBG/CBR dual luciferase ratio (green luciferase fused to IkBa over red control in OCI-Ly3 lymphoma cells), 4 h; IkBa stabilization activation: at 57.1 µM (top of the series), scaled: untreated 0%, proteasome inhibitor 100% unless noted
Procedure, shortened: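 Curves were fitted separately to fusion (green), unfused (red) and ratio luminescence, then classed by r2, magnitude and activity. Cells: OCI-Ly3, 4 h compound plus doxycycline at 37C; 10 uM MG-132 defined full response.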
Potency is the fitted concentration of half-maximal effect.

SMILES | IkBa stabilization activation | Potency
COc1ccc(CCNC(=O)c2cc3c(-c4ccccc4F)nn(C)c3s2)c(OC)c1 | inconclusive: 2.5% [signal inhibitor] | 
O=C(Nc1ccc(Br)cc1F)c1cc(S(=O)(=O)NCc2ccc(F)cc2)ccc1F | inactive | 
COc1ccc(NC(=O)c2cc3c(s2)-c2c(C)cccc2OC3)c(OC)c1 | inconclusive: 2.41% [signal inhibitor] | 
CCCCNc1nc(Oc2ccc(=O)[nH]n2)nc(N(C)C)n1 | inactive | 
CCOC(=O)c1cccc(NC(=O)c2cc3c(=O)n(Cc4ccccc4)ccc3nc2C)c1 | inconclusive: 3.12% [signal inhibitor] | 
COc1ccccc1-c1noc(-c2ccc(N3CCC(C)CC3)c([N+](=O)[O-])c2)n1 | inconclusive: 6.51% [signal inhibitor] | 
COc1cc(C(=O)Nc2cc3c(cc2C)n(C)c(=O)c(=O)n3C)cc(OC)c1OC | inconclusive: 11.2% [signal inhibitor] | 
CCOC(=O)C1CCCN(c2ncnc3c2cnn3-c2ccc(Cl)cc2)C1 (stereo not given) | inconclusive: 10.6% [signal inhibitor] | 
CCC(=O)N1CCc2cc(S(=O)(=O)NC(Cc3ccccc3)C(=O)Nc3ccc(C)cc3)ccc21 (stereo not given) | inconclusive: -1.79% [signal inhibitor] | 
O=C(Nc1ccc(-c2cn3ccsc3n2)cc1)C1COc2ccccc2O1 (stereo not given) | inconclusive: -1.71% [signal inhibitor] | 
CCOc1ccc(-n2c(SCc3ccc(C(=O)OC)o3)nc3c([nH]c4ccccc43)c2=O)cc1 | inactive | 
CCN1C(=O)c2ccccc2Sc2ccc(NC(C)=O)cc21 | inconclusive: 2.55% [signal inhibitor] | 
CCOC(=O)COc1ccc(-c2nnc(-c3ccccc3)o2)cc1 | inconclusive: -0.366% [signal inhibitor] | 
CC1=C(C(=O)OC2CCCCCC2)C(c2c(F)cccc2Cl)CC(=O)N1 (stereo not given) | inconclusive: 9.84% [signal inhibitor] | 
CCN(CCCNC(=O)c1c(C)oc2ncn(CC(C)C)c(=O)c12)Cc1ccccc1 | inactive | 
CCOC(=O)Cn1c(=O)oc2cc(S(=O)(=O)Nc3cccc(C)c3)ccc21 | inconclusive: 8.22% [signal inhibitor] | 
COc1ccc(N(Cc2cccs2)C(=O)COc2cccc(Cl)c2)cc1 | inconclusive: 0.505% [signal inhibitor] | 
CC1(C)S[C@@H]2[C@H](NC(=O)[C@@H](N)c3ccccc3)C(=O)N2[C@H]1C(=O)O[C@H]1OC(=O)c2ccccc21 | inactive | 
Cc1ccc(NC(=O)N2CCC(c3nc4c(nnn4Cc4cccc(Cl)c4)c(=O)[nH]3)CC2)cc1 | inconclusive: 3.24% [signal inhibitor] | 
O=C(Nc1ccc2c(c1)OCCO2)c1ccco1 | inactive | 
CCOC(=O)c1c(Nc2ccc(C)cc2)nnc(-c2ccccc2)c1-c1ccccc1 | inconclusive: 15.2% [signal inhibitor] | 
COc1ccc(NCc2cc3cc4c(cc3n(CC(=O)Nc3ccc(F)cc3F)c2=O)OCO4)cc1 | inconclusive: 1.19% [signal inhibitor] | 
CC1CC(C)CN(S(=O)(=O)c2ccc(C(=O)Nc3nnc(-c4cccs4)o3)cc2)C1 (stereo not given) | inactive | 
COc1ccc2c(C)c(CCC(=O)NCCc3ccccc3OC)c(=O)oc2c1 | inconclusive: -0.52% [signal inhibitor] | 

SMILES | IkBa stabilization activation | Potency
CCc1ccccc1NS(=O)(=O)c1ccc(OC)c2ncccc12 | inconclusive: -3.33% [signal inhibitor] | 
CCCCCn1c(Sc2nc3ccccc3s2)nc2c1c(=O)[nH]c(=O)n2C | inactive | 
CCC1CCCCN1C(=O)c1ccc2c(c1)N(Cc1cccc(Cl)c1)C(=O)c1ccccc1S2(=O)=O (stereo not given) | inconclusive: 0.306% [signal inhibitor] | 
O=C(CN(Cc1ccc2c(c1)OCO2)C(=O)CSc1nc2ccccc2o1)NC1CCCCC1 | inconclusive: 3.1% [signal inhibitor] | 
COC(=O)CCSc1nc2sc3c(c2c(=O)n1Cc1ccccc1)CCC(C(C)(C)C)C3 (stereo not given) | inconclusive: 4.58% [signal inhibitor] | 
CCOc1cc(C2C(C(=O)OC)=C(C)NC3=C2C(=O)c2ccccc23)cc(Cl)c1O (stereo not given) | inconclusive: 2.57% [signal inhibitor] | 
Cc1ccc(-n2ncc3c(NCCCN4CCOCC4)ncnc32)cc1 | inconclusive: -0.401% [signal inhibitor] | 
Cc1c2cc[n+](CCN3CCCCC3)cc2c(C)c2c1[nH]c1ccc(O)cc12 | inactive: -3.48% [at 11.4 µM, scaled: untreated 0%, proteasome inhibitor 100%] | 
COC(=O)CSc1nnc(SCc2ccccc2)s1 |  | inconclusive: 15.8 µM [signal inhibitor, partial curve]
CCn1c2ccccc2c2nnc(N3CCN(c4cc(C)ccc4C)CC3)nc21 | inconclusive: 0.125% [signal inhibitor] | 
CCOc1ccccc1NC(=O)c1ccccc1NS(C)(=O)=O | inactive | 
COc1ccc(NC(=O)CN(Cc2ccccc2)S(=O)(=O)c2ccc(C)cc2)cc1Cl | inconclusive: 15.4% [signal inhibitor] | 
CCC(=O)Nc1ccc2oc(-c3cccc(C)c3)nc2c1 | inactive | 
c1ccc(-c2ccccn2)nc1 | inactive | 
CCOc1ccccc1NC(=O)c1cc2c(Cl)nc3ccccc3c2s1 |  | inconclusive: 1.26 µM [signal inhibitor]
CCOC(=O)c1c(OCC)[nH]c2c1cc(O)c1ccccc12 | inconclusive: 0.553% [signal inhibitor] | 
CCC(C)N(CCNC(=O)CC1Oc2ccccc2NC1=O)C1CCCCC1 (stereo not given) | inconclusive: 15.1% [signal inhibitor] | 
CC(C)C(=O)N(c1ccc2oc(=O)sc2c1)S(=O)(=O)c1cccs1 | inactive | 
CCOC(=O)c1c(N)n(-c2cccc(OC)c2)c2nc3ccccc3nc12 | inactive | 
Cc1ccc(C)n1-c1c(C(=O)NCCC(C)C)sc2ncccc12 | inconclusive: 5% [signal inhibitor] | 
Cc1oc2ncn(CC(C)C)c(=O)c2c1C(=O)N1CCN(c2cccc(C(F)(F)F)c2)CC1 | inconclusive: 1.91% [signal inhibitor] | 
CCOC(=O)C1CCN(C(=O)Cn2c(=O)cc(C)c3c(C)nn(C)c32)CC1 | inconclusive: 3.67% [signal inhibitor] | 
COc1ccc(-c2cc(C(=O)N(C)Cc3ccccc3)no2)cc1OC |  | inconclusive: 12.6 µM [signal inhibitor, partial curve]
COc1cc(-c2nc3nc[nH]n3c2Nc2ccc(C(C)C)cc2)ccc1O |  | inconclusive: 3.16 µM [rising, partial curve]

SMILES | IkBa stabilization activation | Potency
Cc1cccc(-n2ncc3c(Nc4ccc(Oc5ccc(Cl)cc5)cc4)ncnc32)c1 | inconclusive: -4.25% [signal inhibitor] | 
Cc1cc(C)c(CSc2nnc(C)n3c2cc2occc23)c(C)c1 | inactive | 
Cc1ccn2c(Nc3ccccc3C)c(-c3ccccn3)nc2c1 | inconclusive: -6.13% [signal inhibitor] | 
Cn1nc(-c2ccc(N3CCOCC3)c(NS(=O)(=O)c3ccccc3)c2)c2ccccc2c1=O | inactive | 
COc1cc(C(=O)Nc2nc3nc(-c4ccccc4)cc(=O)n3[nH]2)cc(OC)c1OC | inconclusive: 1.7% [signal inhibitor] | 
O=C(NC1CCCCC1)c1cc(Nc2cccc(C(F)(F)F)c2)nc2ccccc12 | inactive | 
O=C(c1n[nH]c(=O)c2ccccc12)N1CCN(C2c3ccccc3-c3ccccc32)CC1 | inconclusive: 4.82% [signal inhibitor] | 
COC(=O)c1ccc(CSc2nnc(NCc3ccccc3)s2)o1 | inactive | 
CCOC(=O)c1ccccc1NC(=O)CCOc1ccccc1 | inconclusive: 14.4% [signal inhibitor] | 
Cc1cccc(N2CCN(C(=O)NCc3noc4ccccc34)CC2)c1C | inconclusive: -0.74% [signal inhibitor] | 
CN(c1ccccc1)c1nc(N2CCCC2)nc(-n2ccnc2)n1 | inconclusive: -1.37% [signal inhibitor] | 
Cc1cc(=O)[nH]c(SCC(=O)N2CCC(C(N)=O)CC2)n1 | inactive | 
O=C(NC1CCCCC1)c1cc2c(Cl)nc3ccccc3c2s1 | inactive | 
COc1ccccc1CNC(=O)C(=O)NCC(c1ccco1)S(=O)(=O)c1cccs1 (stereo not given) | inconclusive: 4.46% [signal inhibitor] | 
CCc1ccc(CCC(=O)Nc2sc3c(c2C#N)CCCC3)o1 | inconclusive: 11.9% | 
CCn1c(=O)n(CC)c2cc(N3CCCCC3)c(NC(=O)Nc3cc(C)cc(C)c3)cc21 | inconclusive: 2.63% [signal inhibitor] | 
COc1ccc(Cl)cc1NC(=O)Cn1c(=O)n(Cc2ccco2)c(=O)c2cccnc21 | inconclusive: -0.773% [signal inhibitor] | 
O=c1nc2sc3ccccc3n2c(=O)n1-c1ccc(Cl)c(Cl)c1 | inconclusive: 11.5% [signal inhibitor] | 
O=C1c2[nH]nc(-c3ccccc3O)c2C(c2ccc(Cl)cc2)N1Cc1ccco1 (stereo not given) | inconclusive: -3.48% [signal inhibitor] | 
CCOC(=O)c1[nH]c2ccc(F)cc2c1NC(=O)CN1CCN(C/C=C/c2ccccc2)CC1 | inconclusive: -3.74% [signal inhibitor] | 
CCOc1cccc2cc(C(=O)N3CCc4ccccc43)c(=O)oc12 |  | inconclusive: 12.6 µM [signal inhibitor, partial curve]
Cc1ccc(NC(=O)c2cccc(N(C)C)c2)cc1NC(=O)c1ccc(O)cc1 | inconclusive: 0.829% [signal inhibitor] | 
